Data as given in paper PMC11408250.
Residue numbers refer to the chain shown, from its start. Results are given in words; binding and its absence hold for the method and conditions named. Binding seen in cells or lysates may run through a third protein. Some results given as binding are weak or reduced against the parent protein; the word gives no strength. Sequences can lack the tags named with a protein.

Chains of the proteins cited; added tags and fusions are not shown.
UniProt P35222: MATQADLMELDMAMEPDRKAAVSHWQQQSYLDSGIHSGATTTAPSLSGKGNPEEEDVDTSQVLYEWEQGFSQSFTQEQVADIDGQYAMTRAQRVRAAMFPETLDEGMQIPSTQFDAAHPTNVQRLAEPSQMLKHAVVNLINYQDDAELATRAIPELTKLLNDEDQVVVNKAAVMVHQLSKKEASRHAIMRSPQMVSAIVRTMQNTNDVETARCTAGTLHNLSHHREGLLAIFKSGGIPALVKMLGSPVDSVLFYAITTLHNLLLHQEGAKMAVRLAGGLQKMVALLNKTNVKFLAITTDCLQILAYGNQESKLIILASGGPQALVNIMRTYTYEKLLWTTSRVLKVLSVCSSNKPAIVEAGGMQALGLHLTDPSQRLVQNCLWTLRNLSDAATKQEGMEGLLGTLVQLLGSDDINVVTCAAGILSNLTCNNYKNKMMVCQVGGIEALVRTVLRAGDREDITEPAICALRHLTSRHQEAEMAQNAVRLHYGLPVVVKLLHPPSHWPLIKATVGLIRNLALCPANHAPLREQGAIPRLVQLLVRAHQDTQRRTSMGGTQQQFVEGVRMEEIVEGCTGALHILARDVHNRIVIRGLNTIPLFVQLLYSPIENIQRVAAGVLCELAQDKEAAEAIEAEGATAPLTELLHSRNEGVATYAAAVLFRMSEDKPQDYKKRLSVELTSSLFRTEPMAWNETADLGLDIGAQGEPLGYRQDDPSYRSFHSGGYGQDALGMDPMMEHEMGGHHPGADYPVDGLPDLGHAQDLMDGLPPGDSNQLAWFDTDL

What was measured:
[1] = target: T1, Myc-PCDH19-FLAG full length (FL), isoform with Exon 2 (+Ex2) (human) (UniProt Q8TAB3); assay: co-IP; HEK293T transfected with Myc-PCDH19-FLAG (isoforms, variants or fragments) and β-catenin-V5, with or without CDH2-HA; anti-FLAG agarose beads 1 hour at 4 °C; Wash Buffer; western blot with anti-Myc, anti-HA and anti-V5
T1 sequence: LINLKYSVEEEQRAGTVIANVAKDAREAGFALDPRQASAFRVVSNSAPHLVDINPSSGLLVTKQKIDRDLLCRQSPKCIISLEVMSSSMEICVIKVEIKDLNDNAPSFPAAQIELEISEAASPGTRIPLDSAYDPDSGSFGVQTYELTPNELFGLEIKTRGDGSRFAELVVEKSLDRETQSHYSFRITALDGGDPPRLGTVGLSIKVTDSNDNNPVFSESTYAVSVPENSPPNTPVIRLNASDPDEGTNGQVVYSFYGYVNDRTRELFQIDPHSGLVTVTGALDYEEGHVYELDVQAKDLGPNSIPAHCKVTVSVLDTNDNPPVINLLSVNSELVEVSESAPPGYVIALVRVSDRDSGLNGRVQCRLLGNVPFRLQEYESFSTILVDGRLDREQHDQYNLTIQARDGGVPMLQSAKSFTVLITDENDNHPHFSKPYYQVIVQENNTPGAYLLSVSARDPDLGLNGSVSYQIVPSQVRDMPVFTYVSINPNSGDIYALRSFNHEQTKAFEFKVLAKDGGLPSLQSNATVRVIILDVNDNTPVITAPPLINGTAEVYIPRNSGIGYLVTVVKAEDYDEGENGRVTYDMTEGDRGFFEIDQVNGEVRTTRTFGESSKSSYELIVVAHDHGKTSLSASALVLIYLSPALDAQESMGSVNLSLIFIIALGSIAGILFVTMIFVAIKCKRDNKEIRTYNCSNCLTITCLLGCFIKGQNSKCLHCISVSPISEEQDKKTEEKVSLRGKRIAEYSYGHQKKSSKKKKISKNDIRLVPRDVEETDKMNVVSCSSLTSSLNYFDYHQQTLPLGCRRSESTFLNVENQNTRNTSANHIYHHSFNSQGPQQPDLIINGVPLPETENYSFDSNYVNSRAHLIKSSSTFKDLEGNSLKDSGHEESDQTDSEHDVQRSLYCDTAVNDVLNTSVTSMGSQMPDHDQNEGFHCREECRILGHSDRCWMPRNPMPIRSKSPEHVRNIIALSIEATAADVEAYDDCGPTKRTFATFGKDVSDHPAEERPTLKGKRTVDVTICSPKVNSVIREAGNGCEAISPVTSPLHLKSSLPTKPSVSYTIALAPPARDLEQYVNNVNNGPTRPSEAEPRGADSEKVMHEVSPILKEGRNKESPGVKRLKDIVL

[2] = target: T2, Myc-PCDH19-FLAG p.N340S (+Ex2) (human) (UniProt Q8TAB3); assay: as above
T2 sequence: T1 sequence with N319S

β-catenin-V5 (from UniProt P35222 1-781)
binding [1]: binds | binding [2]: binds
